Laboratory results as given in article PMC4336329 (PLoS ONE, 2015).
The whole screen tested about 310,000 compounds, of which about 2,200 (0.71%) showed an effect of 50% or more. Effects have a minus sign here. The list shows a part of the results.

Biological target: human ether-à-go-go-related gene (hERG) potassium channel (human, UniProt Q12809)
Experiment: primary screen, population patch clamp on CHO cells stably expressing hERG

Sequence of human ether-à-go-go-related gene (hERG) potassium channel (Q12809 whole entry, looked up): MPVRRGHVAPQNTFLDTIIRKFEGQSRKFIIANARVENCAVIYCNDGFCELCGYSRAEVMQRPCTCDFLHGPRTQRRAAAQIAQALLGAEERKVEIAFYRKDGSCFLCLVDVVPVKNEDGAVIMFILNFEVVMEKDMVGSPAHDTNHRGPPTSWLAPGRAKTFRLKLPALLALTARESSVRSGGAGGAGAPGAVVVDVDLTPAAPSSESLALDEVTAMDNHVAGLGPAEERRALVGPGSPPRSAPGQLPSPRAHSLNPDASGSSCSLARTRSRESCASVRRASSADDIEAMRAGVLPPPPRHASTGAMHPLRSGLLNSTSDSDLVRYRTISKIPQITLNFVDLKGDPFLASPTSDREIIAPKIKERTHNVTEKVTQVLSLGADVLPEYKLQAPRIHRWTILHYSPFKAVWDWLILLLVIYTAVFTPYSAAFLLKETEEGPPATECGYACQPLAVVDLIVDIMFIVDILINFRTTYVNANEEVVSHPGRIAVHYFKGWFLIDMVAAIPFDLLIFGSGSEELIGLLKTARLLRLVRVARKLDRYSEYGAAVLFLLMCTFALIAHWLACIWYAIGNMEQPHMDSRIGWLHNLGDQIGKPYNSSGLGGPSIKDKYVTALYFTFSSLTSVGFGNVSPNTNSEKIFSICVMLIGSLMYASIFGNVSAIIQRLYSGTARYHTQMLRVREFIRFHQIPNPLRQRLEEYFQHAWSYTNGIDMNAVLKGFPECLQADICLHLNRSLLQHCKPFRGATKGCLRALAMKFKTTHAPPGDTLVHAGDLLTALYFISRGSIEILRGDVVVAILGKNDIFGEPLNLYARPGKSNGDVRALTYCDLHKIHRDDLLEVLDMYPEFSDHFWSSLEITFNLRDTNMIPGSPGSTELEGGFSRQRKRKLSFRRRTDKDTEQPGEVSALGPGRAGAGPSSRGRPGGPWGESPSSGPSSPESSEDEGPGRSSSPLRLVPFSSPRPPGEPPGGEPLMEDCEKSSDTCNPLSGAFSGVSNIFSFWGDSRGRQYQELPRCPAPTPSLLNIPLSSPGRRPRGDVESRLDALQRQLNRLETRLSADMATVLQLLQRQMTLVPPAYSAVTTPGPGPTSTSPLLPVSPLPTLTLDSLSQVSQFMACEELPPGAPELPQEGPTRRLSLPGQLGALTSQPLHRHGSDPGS

SMILES | hERG current change (%, negative = inhibition) at 1uM [%]
O=C1CCCc2oc3ccc(NS(=O)(=O)c4cccc5cccnc45)cc3c21 | 8.92
CC(C)NC(=O)c1cnc(N2CCN(c3ccccn3)CC2)c2ccccc12 | 7.48
CCc1ccc(C(=O)C23CN4CN(CN(C4)C2)C3)cc1 | 5.68
Cc1ccc(S(=O)(=O)N2CCN(C(=O)COC(=O)C3CC3C)CC2)c(C)c1 (centres unmarked) | -3.18
O=c1c2ccccc2nnn1CSc1ccccc1F | 5.04
CC(C)(C)NCC(O)c1cc(Cl)c(N)c(Cl)c1.Cl (centres unmarked) | 4.02
O=C(COC(=O)c1cccc(Cl)c1)Nc1ccc2[nH]c(=O)[nH]c2c1 | 1.63
O=C(NCCN1CCOCC1)c1cc2ccccc2oc1=O | 5.73
COc1ccc(-c2cccc(NS(=O)(=O)c3cccc([N+](=O)[O-])c3)c2)nn1 | 9.11
CC(=O)c1c(N2CCCC2)[nH]c(-c2ccccc2)nc1=S | -3.96
CCC(CC)C(=O)NCCNC(=O)C(CC)CC | 14.4
CN(C)C=Nc1ccccc1C1C=NNC1=O (centres unmarked) | 10.6
CC(NC(=O)Cc1cccs1)C(c1cccs1)N1CCOCC1 (centres unmarked) | 6.61
CC(=O)c1ccc(S(=O)(=O)NCc2nnnn2-c2ccccc2)cc1 | 10.9
Cc1ccc(N2C(=O)[C@@H]3C(c4cccnc4)=NO[C@@H]3C2=O)c(C)c1 | 17.2
NCCCC[C@H]1CNC(=O)C(=O)N1CC1CCCCC1 | 19.3
COc1ccc(C(=O)Nc2cccc(C(=O)N/N=C/c3ccc(OC)cc3OC)c2)cc1 | 9.51
C[C@]12CC[C@H]3[C@@H](CCC4=CC(=O)CC[C@@]43O)[C@@H]1CCC2=O | 0.0717
CCOc1ccc(NC(=O)Cn2cc(C(C)=O)c3ccccc32)cc1 | 2.97
COc1ccc(C(=O)c2oc3ccc(Br)cc3c2NC(C)=O)cc1 | 4.56
CCc1ccc(NS(=O)(=O)c2cc3[nH]c(=O)c(=O)[nH]c3cc2C)cc1 | 17.4
O=C(COc1ccc(Br)cc1)NCCNC(=O)c1ccccn1 | -0.378

SMILES | hERG current change (%, negative = inhibition) at 1uM [%]
O=C(COC(=O)c1cccnc1Nc1ccccc1F)NCCN1C(=O)CSC1=O | 0.954
O=C(NCc1nnc(SCC(=O)N2CCC(Cc3ccccc3)CC2)o1)c1ccco1 | -6.48
CC1(C)CC(NC(=O)COc2ccc([N+](=O)[O-])cc2)CC(C)(C)N1 | 3.47
CN1C(=O)CN=C(c2ccc(Cl)cc2)c2cc(Cl)ccc21 | -0.804
NC(=O)c1ccc(NC(=O)CN2C(=O)NC(c3ccccc3)(c3ccccc3)C2=O)cc1 | 16.6
CCCC(=O)C1=C(O)C(C(=O)OC)C(C)(C)CC1=Nc1ccc(Br)cc1 (centres unmarked) | 13.2
CC1CCN(c2ncnc3c2cnn3Cc2ccc(Cl)cc2)CC1 | 4.18
COC(=O)C1=C(c2ccccc2)C[C@@H]2CC[C@H]1N2C | 21.1
O=C(COC(=O)Cc1ccccc1F)Nc1ccc(SC(F)F)cc1 | -1.11
Cc1cccc(OCc2ccc(C(=O)Nc3cc(C)on3)o2)c1 | 13.8
CC1C(=O)CCN(C(C)C)C1C.Cl (centres unmarked) | 10.8
COCCN(C(=S)Nc1ccccc1C)C(C)c1cccnc1 (centres unmarked) | 1.86
CCOc1ccc(CN2CCCC(CO)(Cc3ccc(F)cc3)C2)cc1 (centres unmarked) | -13.1
CCCCCCc1cc2cc(C(=O)Nc3cccc(OC)c3)c(=O)oc2cc1O | 13.9
O=C(Nc1ccccc1-c1ccccc1)c1ccccc1Br | 11.5
Nc1nc2c(c(=O)[nH]1)CN(Cc1ccccc1)CC2 | 5.8
CC(=O)n1cc([C@@H]2C=C(C(=O)N3CCN(Cc4ccc5c(c4)OCO5)CC3)O[C@H](OCCCCO)C2)c2ccccc21 | -6.63
NC(=O)c1nsc(C(=O)N(CC(=O)NCc2ccc3c(c2)OCO3)C2CCCCC2)c1N | 6.06
COc1ccccc1C(CNc1ncccc1[N+](=O)[O-])N(C)C (centres unmarked) | 7.34
CCN1CCN(CC(=O)c2cc(OC)c(OC)c(OC)c2)CC1 | 10.8
Cc1cccc(-c2nc3c(c(SCC(=O)N(C)C)n2)CCCC3)c1 | 5.58
CC(C)c1ccc(NC(=O)c2ccc(NC3=NC4CS(=O)(=O)CC4S3)cc2)cc1 (centres unmarked) | -0.0656
